SMILES strings stand for the structures. The campaign covered roughly 310,000 compounds. About 14,000 (4.5%) showed an effect of 50% or more. The effect is printed as a negative number. The list shows a part of the results.
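Also: peak tail current of the secondary pulse compared with the same well before compound.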

For the assay, the target named is human ether-à-go-go-related gene (hERG) potassium channel (human, UniProt Q12809). The experiment in a line: primary screen, population patch clamp on CHO cells stably expressing hERG.
Sequence of human ether-à-go-go-related gene (hERG) potassium channel (Q12809 whole entry, looked up): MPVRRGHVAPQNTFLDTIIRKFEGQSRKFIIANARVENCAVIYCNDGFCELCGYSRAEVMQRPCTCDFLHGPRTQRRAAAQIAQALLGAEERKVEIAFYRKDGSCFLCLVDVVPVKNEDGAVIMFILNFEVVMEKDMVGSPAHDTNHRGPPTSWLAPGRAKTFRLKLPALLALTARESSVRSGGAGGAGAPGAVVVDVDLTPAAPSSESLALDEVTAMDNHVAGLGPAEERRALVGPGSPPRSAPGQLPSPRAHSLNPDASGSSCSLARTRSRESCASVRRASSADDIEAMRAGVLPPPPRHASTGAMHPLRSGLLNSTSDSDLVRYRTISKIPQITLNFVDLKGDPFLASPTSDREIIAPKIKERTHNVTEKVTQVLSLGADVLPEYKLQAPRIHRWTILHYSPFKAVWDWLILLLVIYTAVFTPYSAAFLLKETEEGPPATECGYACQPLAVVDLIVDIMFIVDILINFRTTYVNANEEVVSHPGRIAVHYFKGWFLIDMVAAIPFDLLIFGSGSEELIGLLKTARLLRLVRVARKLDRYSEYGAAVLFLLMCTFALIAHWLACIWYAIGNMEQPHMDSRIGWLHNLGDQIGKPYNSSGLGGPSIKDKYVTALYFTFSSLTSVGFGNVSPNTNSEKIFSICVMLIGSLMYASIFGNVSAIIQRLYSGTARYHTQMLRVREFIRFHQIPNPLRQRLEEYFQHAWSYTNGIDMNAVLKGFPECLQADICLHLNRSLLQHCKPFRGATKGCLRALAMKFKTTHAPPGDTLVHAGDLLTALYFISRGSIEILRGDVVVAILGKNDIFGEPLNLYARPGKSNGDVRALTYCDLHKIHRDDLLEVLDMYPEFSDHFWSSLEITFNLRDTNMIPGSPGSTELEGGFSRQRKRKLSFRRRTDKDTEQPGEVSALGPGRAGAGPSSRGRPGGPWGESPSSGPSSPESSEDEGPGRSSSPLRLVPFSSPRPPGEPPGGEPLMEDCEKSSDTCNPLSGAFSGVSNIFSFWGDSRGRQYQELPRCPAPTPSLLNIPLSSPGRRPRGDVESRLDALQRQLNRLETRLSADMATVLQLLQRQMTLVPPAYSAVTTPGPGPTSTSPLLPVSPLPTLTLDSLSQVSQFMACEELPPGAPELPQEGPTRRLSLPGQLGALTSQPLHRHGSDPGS
On to `O=C(COc1ccccc1)OCC(=O)N1CCCc2ccccc21`, for which the “hERG current change (%, negative = inhibition) at 10uM” value is listed as 6.37%.

Regarding `CCCc1ccc(S(=O)(=O)N/N=C(/C)c2ccc3c(c2)OCO3)cc1`, the “hERG current change (%, negative = inhibition) at 10uM” value is on record as 3.44%.

Turning to `COc1ccc(-n2c(=O)cc(N3CCCCCC3)[nH]c2=O)cc1`, the “hERG current change (%, negative = inhibition) at 10uM” value was found to be 7.04%.

In the case of `CN(CC(=O)Nc1ccc(F)c(F)c1F)C(=O)c1ccc(-n2cncn2)cc1`, the “hERG current change (%, negative = inhibition) at 10uM” value is -63.8%.

With `S=c1[nH]nc(C2CCCCC2)n1/N=C/c1ccccn1`, the “hERG current change (%, negative = inhibition) at 10uM” value is listed as 25.8%.

With `CCCCCCSc1ccc([C@@H]2[C@@H]3C(=O)N(CC)C(=O)[C@@H]3[C@]3(C(=O)OC)CCCCN23)cc1OC.O=C(O)C(F)(F)F`, the “hERG current change (%, negative = inhibition) at 10uM” value was 4.94%.

With `CCOC(=O)C1=NNC2(c3ccccc3)C(=O)N(c3cccc(Br)c3)C(=O)C12` (stereo not shown), the “hERG current change (%, negative = inhibition) at 10uM” value is -7.85%.

Turning to `NS(=O)(=O)c1cccc(NC(=O)c2ccc3nc[nH]c3c2)c1`, the “hERG current change (%, negative = inhibition) at 10uM” value was 16.8%.

As to `O=c1c2ccccc2n2nnnc2n1-c1ccccc1`, the “hERG current change (%, negative = inhibition) at 10uM” value was 3.72%.

With `CN(C)c1ccc(C(=O)OCC(=O)N2CCCC2)cc1`, the “hERG current change (%, negative = inhibition) at 10uM” value is given as 21.6%.

`O=C(Nc1ccccc1C(=O)Nc1ccccn1)c1cc(F)c(F)cc1Cl`: the “hERG current change (%, negative = inhibition) at 10uM” value is recorded as -15.5%.

Consider `COCCNc1c2c(nc3c(-c4ccccc4)c(C)nn13)CCC2`, for which the “hERG current change (%, negative = inhibition) at 10uM” value is recorded as 2.2%.

Take `Cc1ccc(-n2c(C)nnc2SCC(=O)N2CCc3ccccc3C2)cc1C`: the “hERG current change (%, negative = inhibition) at 10uM” value is reported as -21.9%.

In the case of `O=C(NCc1ccco1)c1ccc([N+](=O)[O-])cc1Cl`, the “hERG current change (%, negative = inhibition) at 10uM” value is reported as -3.96%.

As to `CN(C)c1ccc(CNC2C3CC4CC(C3)CC2C4)cc1.Cl` (stereo not shown), the “hERG current change (%, negative = inhibition) at 10uM” value is -12.4%.

Turning to `COc1ccccc1N1CCN(S(=O)(=O)CCNC(=O)c2ccc(OC(C)C)cc2)CC1`, the “hERG current change (%, negative = inhibition) at 10uM” value amounted to 1.22%.

As to `CC(C)(C)[C@]1(O)CCN2C[C@H]3c4ccccc4CCc4cccc(c43)[C@@H]2C1.Cl`, the “hERG current change (%, negative = inhibition) at 10uM” value is -78.3%.

On to `CN(CC(=O)Nc1ccc(C(N)=O)cc1)CC(=O)Nc1ccccc1Br`, for which the “hERG current change (%, negative = inhibition) at 10uM” value worked out at 11%.

On to `Cc1cccc(Oc2ncnc(N)c2[N+](=O)[O-])c1C`, for which the “hERG current change (%, negative = inhibition) at 10uM” value turned out to be 7.43%.

With `COCCN(C(=O)CNC(=O)c1ccco1)C(C(=O)NC1CCCC1)c1ccc(OC)cc1` (stereo not shown), the “hERG current change (%, negative = inhibition) at 10uM” value is -10%.

As to `COCCNC(=O)c1sc2ncn(CC(=O)N3CCCCC3)c(=O)c2c1C`, the “hERG current change (%, negative = inhibition) at 10uM” value was -0.961%.

For `Cc1ccc(S(=O)(=O)Nc2ccc(C(=O)NCCCN3CCOCC3)cc2)cc1[N+](=O)[O-]`, the “hERG current change (%, negative = inhibition) at 10uM” value is 6.23%.

`Cc1ccc(OC(C)C(=O)Nc2ccncc2)cc1` (stereo not shown): the “hERG current change (%, negative = inhibition) at 10uM” value worked out at 4.89%.

Turning to `O=C(N1CCCCC1)N1CCN(c2ccc(Cl)cc2)CC1`, the “hERG current change (%, negative = inhibition) at 10uM” value was -21.9%.

Take `CCCCc1nc2ccccc2[nH]1`: the “hERG current change (%, negative = inhibition) at 10uM” value worked out at 14.2%.

Turning to `CCC(C)(C)C1CCc2[nH]nc(C(=O)NCCN3CCOCC3)c2C1` (stereo not shown), the “hERG current change (%, negative = inhibition) at 10uM” value is given as -1.47%.

As to `Nc1cc2c(cc1C(=O)c1cccc(Br)c1)OCCO2`, the “hERG current change (%, negative = inhibition) at 10uM” value is -17.6%.

Take `CCOc1ccc(N2C(=O)CSC23CCCCC3)cc1`: the “hERG current change (%, negative = inhibition) at 10uM” value was -3.56%.

`O=C(Nc1cc(-c2ccccc2)[nH]n1)c1ccccc1F`: the “hERG current change (%, negative = inhibition) at 10uM” value is given as 6.54%.

Consider `Cc1cc(C)cc(NC(=S)N2CCN(c3ncc(C(F)(F)F)cc3Cl)CC2)c1`, for which the “hERG current change (%, negative = inhibition) at 10uM” value amounted to 3.28%.

For `CC1CCC(C(C)C)C(OC(=O)CSc2nnc(N)s2)C1` (stereo not shown), the “hERG current change (%, negative = inhibition) at 10uM” value came to 3.01%.

Regarding `CCc1ccccc1NC(=O)CN1CCN(C(=O)C2CCN(C(=O)/C=C/c3ccccc3)CC2)CC1`, the “hERG current change (%, negative = inhibition) at 10uM” value is recorded as -72.9%.

Consider `COc1ccc(C)cc1S(=O)(=O)N(C)CC(=O)NCc1ccco1`, for which the “hERG current change (%, negative = inhibition) at 10uM” value was found to be 7.99%.

Consider `Cc1ccc(S(=O)(=O)c2c(C)cc(C)nc2N2CCCC2)cc1`, for which the “hERG current change (%, negative = inhibition) at 10uM” value is reported as -34.3%.

Take `Cc1ccc(NC(=O)c2cc(S(=O)(=O)N3CCCCC3)ccc2N2CCOCC2)cc1F`: the “hERG current change (%, negative = inhibition) at 10uM” value is -13.9%.

`CCCOc1ccc(N2C(=O)CC(S/C(N)=N/N=C(\C)c3cccs3)C2=O)cc1` (stereo not shown): the “hERG current change (%, negative = inhibition) at 10uM” value is listed as 2.55%.

Turning to `CC(=O)Oc1ccc(/C(C)=N\N2CCN(Cc3ccc(Cl)cc3)CC2)cc1`, the “hERG current change (%, negative = inhibition) at 10uM” value is on record as -36.8%.

Regarding `CCN1CCCC1CNCc1cc(OC)c(OC)c(OC)c1.Cl` (stereo not shown), the “hERG current change (%, negative = inhibition) at 10uM” value is listed as 1.63%.

Consider `COc1ccccc1C(=O)c1cc2ccc(O)cc2oc1=O`, for which the “hERG current change (%, negative = inhibition) at 10uM” value was 15.1%.

In the case of `CN(C)CCSc1nc(-c2ccccc2)nc2c1CCCC2`, the “hERG current change (%, negative = inhibition) at 10uM” value is -51.3%.

In the case of `Cc1c(Cl)c([N+](=O)[O-])nn1CCCC(=O)Nc1ccc(Cl)cc1Cl`, the “hERG current change (%, negative = inhibition) at 10uM” value was -45.1%.

Take `N#Cc1c(NC(=O)CSc2nc(-c3ccco3)cc(C(F)(F)F)n2)sc2c1CCCC2`: the “hERG current change (%, negative = inhibition) at 10uM” value amounted to 12.3%.

For `O=C1CCCN1CCCNS(=O)(=O)c1ccc(Cl)c(C(=O)N2CCOCC2)c1`, the “hERG current change (%, negative = inhibition) at 10uM” value was determined as 17%.

As for `CC1(C)Cc2c(c(-c3ccco3)nc3sc4c(NCCO)ncnc4c23)CO1`, the “hERG current change (%, negative = inhibition) at 10uM” value was found to be 14.8%.

As to `O=C(COc1coc(CN2CCc3ccccc3C2)cc1=O)N1CCOCC1`, the “hERG current change (%, negative = inhibition) at 10uM” value was 5.77%.

Take `Cc1cc2c(cc1S(=O)(=O)N(C)Cc1ccccc1)OCC(=O)N2`: the “hERG current change (%, negative = inhibition) at 10uM” value is on record as -6.54%.

Regarding `COc1cc(NC(=O)COc2cc(C)cc3oc(=O)c(C)c(C)c23)cc(OC)c1OC`, the “hERG current change (%, negative = inhibition) at 10uM” value amounted to 31.5%.

For `C/C(CC(=O)Nc1ccccn1)=N\NC(=O)c1ccncc1`, the “hERG current change (%, negative = inhibition) at 10uM” value is listed as 21.1%.

As to `CCn1c(=O)cc(SCC(=O)N2CCC3(CC2)OCCO3)c2ccccc21`, the “hERG current change (%, negative = inhibition) at 10uM” value is on record as 8.73%.

With `COc1ccc(NC(=O)CSc2ccc3nnc(-c4cccnc4)n3n2)cc1`, the “hERG current change (%, negative = inhibition) at 10uM” value is reported as -50.4%.

With `C[C@@H]1NC(=O)N[C@@H]1CCCCCC(=O)O`, the “hERG current change (%, negative = inhibition) at 10uM” value came to 14.6%.

With `O=C1C(=O)N(CCCn2ccnc2)C(c2ccc([N+](=O)[O-])cc2)/C1=C(\O)c1ccc2c(c1)OCCO2` (stereo not shown), the “hERG current change (%, negative = inhibition) at 10uM” value is recorded as 15.9%.

For the molecule `COc1ccc(CCC(=O)NCCc2nc3ccccc3[nH]2)cc1`, the “hERG current change (%, negative = inhibition) at 10uM” value is on record as -8.48%.

In the case of `CCOC(=O)[C@H]1[C@H]2COc3cc(OC)ccc3[C@@H]2N2C(=O)N(c3ccc(Cl)cc3)C(=O)[C@@]12C`, the “hERG current change (%, negative = inhibition) at 10uM” value is on record as -8.04%.

Regarding `CCOCCn1c(CN2CCCC(C)C2)nc2c1c(=O)n(C)c(=O)n2C` (stereo not shown), the “hERG current change (%, negative = inhibition) at 10uM” value is recorded as 11.7%.

These data come from PMC4336329 (PLoS ONE, 2015).
